Experimental data from the supplement of paper PMC3334620.
Over roughly 33,000 sequences, “E-score (-0.5 to 0.5)” has its median near -0.021; the highest 2% begin near 0.32. The list shows a part of the results.

biological target: T1, Zap1 (UniProt P47043); test: PBM E-score (8-mer binding enrichment) (E-score (-0.5 to 0.5)); higher = stronger / more preferred TF binding; most listed sequences are background and not binding sites; details: protein concentration: 200 nM; construct: GST-full length
T1 sequence: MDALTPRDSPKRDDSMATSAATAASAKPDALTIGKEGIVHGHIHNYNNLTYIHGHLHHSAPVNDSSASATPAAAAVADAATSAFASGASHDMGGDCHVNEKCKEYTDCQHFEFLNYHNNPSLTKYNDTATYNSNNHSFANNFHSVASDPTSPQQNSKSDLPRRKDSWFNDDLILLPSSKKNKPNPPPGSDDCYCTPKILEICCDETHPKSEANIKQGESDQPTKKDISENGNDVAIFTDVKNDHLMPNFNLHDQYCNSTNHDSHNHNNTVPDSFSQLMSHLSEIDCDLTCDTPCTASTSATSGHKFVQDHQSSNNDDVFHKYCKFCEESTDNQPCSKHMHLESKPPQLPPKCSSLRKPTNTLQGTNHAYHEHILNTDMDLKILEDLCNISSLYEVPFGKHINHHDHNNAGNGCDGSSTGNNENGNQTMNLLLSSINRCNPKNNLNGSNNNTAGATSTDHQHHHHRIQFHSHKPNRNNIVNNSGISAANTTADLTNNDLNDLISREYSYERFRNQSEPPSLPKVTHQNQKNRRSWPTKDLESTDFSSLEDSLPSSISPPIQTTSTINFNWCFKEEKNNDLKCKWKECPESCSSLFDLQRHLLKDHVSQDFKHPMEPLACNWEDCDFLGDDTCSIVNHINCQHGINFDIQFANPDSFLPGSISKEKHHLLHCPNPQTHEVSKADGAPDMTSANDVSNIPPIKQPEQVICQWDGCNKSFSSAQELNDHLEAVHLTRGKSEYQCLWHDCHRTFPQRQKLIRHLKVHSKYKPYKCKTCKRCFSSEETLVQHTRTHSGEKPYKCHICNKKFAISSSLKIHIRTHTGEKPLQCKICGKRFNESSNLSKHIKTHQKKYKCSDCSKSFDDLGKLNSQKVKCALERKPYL
Outline: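 Bound GST-tagged yeast transcription factors, applied at about 100-200 nM to double-stranded universal all-10-mer Agilent arrays, were detected with fluorescent anti-GST. Scans were normalised with masliner. A modified Wilcoxon-Mann-Whitney statistic, the E-score, was assigned to each ungapped eight-base word pooled with its reverse complement by the Universal PBM Analysis Suite.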

Sequence	PBM E-score
ACGACGTA	-0.14
CCGGTAAC	0.316
GCGCAACA	-0.133
ATACGGTG	0.181
AACTACCT	0.286
ACGATGCC	-0.285
ATCAACAA	0.186
CTAAAGCC	-0.218
ATAAGTTG	-0.0925
AGGAAGTG	0.0225
GTACGTGA	-0.0853
GGCTGAAC	-0.0821
GCGTCTTA	-0.193
ATGAAATG	-0.0399
CCGACACC	-0.2
ACGAGCGT	-0.0674
CGTCTGGA	-0.0902
AGCCATGC	-0.369
AGATGGGG	-0.214
AACTTAGA	0.01
GGATCCTA	-0.142
AGCTTTAT	-0.0486
ATTTCCAA	0.0256
AAATAGCA	-0.171
GACATTGA	-0.0123

Sequence	PBM E-score
CCATCCAG	-0.155
CTCGCGGA	-0.149
AGCTCACA	-0.165
CACTAGAC	-0.156
ATAGTGCA	-0.0523
ACTGCTAA	-0.137
CCAACCGA	0.0326
AGGCCCCA	-0.0487
GATGCAGA	-0.0572
CTAACGAG	-0.0614
CCTGAACG	-0.00311
ACACACAA	0.182
CGAGCGCC	-0.202
CCGGTTCG	-0.00578
AGCTGAGG	-0.138
CGAGGACC	-0.0258
ACCCCTAA	0.278
ACAAAGGT	0.352
ACAAACGT	-0.0419
CACTGCAA	-0.123
ACGTCGCT	-0.238
CCATAAGG	0.282
AATCGGCG	-0.186
TAAGGTCA	0.341
CGCCCGGA	-0.105

Sequence	PBM E-score
GGTTCCAC	0.218
ACGGCCCA	-0.047
ATTGGGCA	-0.0745
AGTTTCCG	0.0649
CAGTCTAG	-0.321
CTAGGTCA	0.117
ATCGCTGG	-0.145
ATCATCTC	-0.073
TGAATCAA	0.0938
ACGTAGAA	0.0762
GTTCAACA	-0.0577
AAACACCA	0.107
AAAGTCTA	0.0717
ATTCCACA	0.0774
ACTGACGC	-0.187
GAGAACAA	0.0974
CCCATCAA	0.137
TGCTGCCA	-0.191
CACCTTCC	0.0289
GTATAGGA	-0.215
GCCCCAGC	0.00901
AAGTTCCC	-0.131
AGGACTTG	-0.105
GCGAAGGA	-0.165
AAATTAAG	0.0441

Sequence	PBM E-score
CCATGCGG	0.0435
CTATAACC	0.446
AGTTATTA	0.106
CTTCCTGC	-0.31
CAGTGCTA	-0.207
GTCATGCA	-0.0612
CCCCCACG	-0.21
ACATCGGA	0.0121
AGCCTGTG	-0.29
ATCTCTAC	0.114
CACTGCCG	-0.107
GACTTTAA	0.0488
ACCTTGTG	0.281
ATAACAAA	0.242
AGACAGGG	-0.153
ACAACTTA	0.00522
GTCCGTTA	0.0812
AAAATACA	0.183
CGAATAGC	-0.184
CAGTCACC	-0.113
GAAGGGCA	-0.219
ACGGGTCT	-0.021
AGGATTTC	-0.162
AAGTAGCA	-0.0495
CCTGTCAG	-0.0732

Sequence	PBM E-score
ATGGAACC	0.0628
ACTGCGCC	-0.289
CATAACGG	-0.0515
CGCGTTAC	0.141
GACCTAGA	0.0626
GTTAAAAC	0.22
TTCTAAAA	0.187
CATTTCCC	0.12
TACTCTGA	0.0488
ATAATGCC	0.0451
CGTCCTAA	0.00473
GCGTGCAC	-0.208
GATACATC	-0.109
ATGTCTAC	-0.134
AAAAAACT	0.00919
ATGTTGGA	0.0998
GCTTTCCA	-0.111
GGTTTTCA	0.26
CTCCAAAG	0.0186
AAGATGCC	-0.281
ACTTTAGC	-0.16
AGGGGAAC	-0.0872
CCTACTCG	-0.124
CATAAACC	0.135
AGGTATGG	0.155

Sequence	PBM E-score
AGGCCGAG	0.0111
TGGCTGAA	-0.139
ATGTCGGG	0.0104
CAGATCGA	-7e-05
AACACTAA	0.179
GGAAATGA	0.115
GATAAGGA	-0.0277
AACAACTG	0.189
AATCACGT	-0.15
CGCTAGCA	-0.0784
GCACGAAC	0.044
GGAATCAC	0.0891
CCATCTAA	-0.0281
AGAGCACG	-0.217
GGAGGTTA	0.36
AGAAGGGA	-0.422
ACGGCCGC	0.0225
GGAAGGGA	-0.268
AAACAACT	0.114
CACCTCCC	-0.0903
CGGTCAGC	0.0641
AAATTAGC	0.0653
GCCGAGCA	-0.24
GTATATCA	0.113
AAAGAGGA	-0.229

Sequence	PBM E-score
GACGTCTA	-0.203
ACAACCGG	0.194
CATTTGCC	-0.132
ATACTGTA	0.173
TTCTGAAA	0.126
AGGCGCAC	-0.0796
CGAGTACC	0.149
CACTTCAA	0.0419
AATGATAC	0.208
CGCCCTTA	0.0874
CACTGATC	0.0193
CCTGAAAC	0.238
CTTTACCC	0.129
CGGCATGA	0.062
CATATTCA	0.0632
AGGGTGAA	0.0968
GGAGACCA	-0.0236
CCCTGCTC	0.00487
CTGCGTGC	-0.227
CTCTAGGC	-0.12
CCGGACGG	-0.0372
ACTCCCCG	-0.0274
